From PubChem BioAssay AID485344 (National Center for Advancing Translational Sciences (NCATS), 2010)
Screen size: about 340,000 compounds; about 6,900 (2%) were called active. Rule as the data show it: active = inhibition above about 30%; inactive = below that, where a call was filed. The list shows a part of the results, in another mix than the full data. The source gives no active or inactive call for entries shown without one.

These compounds were tested against D(2) dopamine receptor (Homo sapiens) (UniProt P14416) (assay: HTS Assay for Allosteric Antagonists of the Human D2 Dopamine Receptor: Primary Screen for Antagonists). Conditions: HEK293 TREx D2 cells, calcium flux, dopamine EC80; at 10 µM; stronger effect = higher value.
Chain of UniProt P14416 (P14416 whole entry, looked up): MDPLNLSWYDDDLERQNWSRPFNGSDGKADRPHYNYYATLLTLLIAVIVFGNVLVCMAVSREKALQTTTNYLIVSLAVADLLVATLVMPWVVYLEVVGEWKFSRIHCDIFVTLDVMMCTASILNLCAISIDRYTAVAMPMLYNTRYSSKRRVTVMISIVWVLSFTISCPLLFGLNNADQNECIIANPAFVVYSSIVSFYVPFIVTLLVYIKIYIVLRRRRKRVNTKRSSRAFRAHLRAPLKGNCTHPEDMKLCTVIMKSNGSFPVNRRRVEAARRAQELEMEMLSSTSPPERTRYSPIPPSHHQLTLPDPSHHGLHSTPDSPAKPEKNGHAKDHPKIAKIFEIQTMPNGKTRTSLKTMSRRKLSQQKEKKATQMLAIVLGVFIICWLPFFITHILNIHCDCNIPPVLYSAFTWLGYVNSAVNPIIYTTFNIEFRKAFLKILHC
Method in brief: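 Calcium mobilization kinetics were recorded at 1 s intervals in tetracycline-induced HEK293 T-REx D2 cells, first for 180 s after compound addition and then 180 s after EC80 dopamine.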
Also: 0% is about no effect.

Compound	inhibition
CCOc1cc(-c2nc(-c3ccc(-c4ccccc4)nc3OCC)no2)cc(OCC)c1OCC	-20.4%
COc1cc(OC)c(NC(=O)c2cnn(-c3ccccc3)c2-n2cccc2)cc1Cl	4.99%
O=C(NCc1ccccc1Cl)c1ccccc1NC(=O)c1nsc2ccccc12	-25.3%
COc1ccc(N2CCN(C(=O)c3cc4c(=O)n(Cc5ccco5)ccc4nc3C)CC2)cc1	6.77%
CCC(=O)N1CCc2cc(Br)cc(S(=O)(=O)Nc3ccccc3C(=O)OC)c21	2.04%
O=C(CSc1nccn1Cc1ccc(Cl)cc1)Nc1nc2ccccc2s1	4.41%
COCCCNC(=O)c1cc2c(-c3cccc(OC)c3)nn(C)c2s1	0.091%
Cc1ccccc1CCNC(=O)c1ccc(Cn2c(=O)c3cccn3c3cccnc32)cc1	25.6%
CCc1ccc(NC(=O)c2cc(S(=O)(=O)N3CCCC(C)C3)cn2C)cc1 (stereo unspecified)	-4.09%
COC(=O)C1=C(C)N(C(C)C)C(=O)C1(NC(=O)c1ccccc1OC)C(F)(F)F (stereo unspecified)	-3.82%
COc1ccccc1CNC(=O)C(=O)NCC(c1ccco1)S(=O)(=O)c1ccc(C)cc1 (stereo unspecified)	-11.9%
CCCCCn1c(CCCNC(=O)c2ccc(Cl)cc2)nc2ccccc21	-3.84%
COc1ccc(CNC(=O)CCc2nnc3n(C)c(=O)c4sccc4n23)cc1	23.3%
COc1ccc(-c2nc(C(=O)Nc3cccc(C(C)=O)c3)nn2-c2ccccc2Cl)cc1	1.05%
CCc1ccc(NC(=O)CSc2nc3c(c(=O)[nH]2)CN(Cc2ccc4c(c2)OCO4)CC3)cc1	15.1%
Cc1ccc(C)c(N2CCN(S(=O)(=O)c3c(C(=O)N4CCC(C)CC4)c(C)n(C)c3C)CC2)c1	-13.4%
O=C(CCCc1ccccc1)NC1CC(=O)N(c2cccc(F)c2)C1 (stereo unspecified)	-18%
CCOC(=O)c1cc2c(=O)n3ccccc3nc2n(C)c1=NC(=O)c1c(-c2c(F)cccc2Cl)noc1C	0.689%
CC1(c2ccccc2)NC(=O)N(CC(=O)Nc2ccc(S(=O)(=O)Nc3ncccn3)cc2)C1=O (stereo unspecified)	active: 50%
CCOc1ccc(CNC(=O)C2CCN(C(=O)c3ccc(-n4ccc5ccccc54)s3)CC2)cc1	-8.28%
CCOc1ccc(Nc2cc(C(=O)NCc3ccccc3Cl)c3ccccc3n2)cc1	20.4%
Cc1cccc(NC(=O)Cn2c(=O)n(CCCCCC(=O)NCc3ccccc3)c(=O)c3sccc32)c1	-1.93%
CCOC(=O)N1CCN(C(=O)c2ccc3c(c2)N(Cc2ccccc2F)C(=O)c2ccccc2S3(=O)=O)CC1	-11.8%
O=C(c1ccc(Cl)cc1)N1CCN(CCc2ccncc2)CC1	16.4%
CCN(Cc1ccccc1)c1ncnc2c1cnn2-c1ccc(F)cc1	8.84%
Cc1ccc(-c2nnc(Nc3cccc(Cl)c3)c3ccccc23)cc1S(=O)(=O)N1CCN(C)CC1	-13.8%
